Laboratory results taken from the supplement of paper PMC11417369.
Some of the results follow.

What follows are sequences tested on PfHDP1 homeodomain (GST-tagged) (assay: gcPBM binding intensity (ln(normalized median fluorescence intensity)); higher = stronger DNA binding).
Outline: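 In this array assay, P. falciparum DNA-binding domains with a GST tag, expressed in E. coli, were applied for 1 h to primer-extended double-stranded 36-bp intergenic genomic probes and negative controls on an Agilent 4 × 180k array. Bound protein was visualised with Alexa488 anti-GST antibody at 488 nm. Binding intensity is the highest Masliner-normalised natural-log median intensity across replicate spots of either probe orientation.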

Sequence	gcPBM binding intensity (ln)
AGGTGATTGATATATACACACATACCTATATTTATA [CACACA_site7348]	6.56
TTATTAAAATATTCTAGTACATATAAAAGGAGAACA [XGTACX_site4374]	6.81
GAAATAAATATATATGCATGTACTTTAATATTATTA [TGCATGCA_site904]	6.3
TAAATATATTCATAAAGTACAAAGCAAAATTGTCTA [XGTACX_site7274]	6.48
GTGCTTATTTATACATGTACAAATGATAAGTTTGTA [XGTACX_site169]	6.88
TTATTATCTCTTGTCATTATTATATACTAAGAAGTA [CACACA_negctrl_site410]	6.35
AATATGAAATATATTACACACATTTATATGTTGAAA [CACACA_site1427]	6.31
ATTACATTTTTAATGCGTACTAAAAATGTATATAAG [XGTACX_site6384]	6.6
AGAATTACTTAAAAAAGTACATAAAATTATTTAAAA [XGTACX_site2205]	5.96
AATATAAAAATGTTTACACACACACCCAAATATATT [CACACA_site2511]	6.92
AATACACCCAGACACACACACAAAAAAAAAAAAAAA [CACACA_site513]	6.45
ATATATATATTAAATACACACATTTTTGATTAGGTT [CACACA_site3119]	8.19
TTTGAATCCTTATATACACACATTATGTAATATTAT [CACACA_site561]	6.83
AAAAGAGAAATGGGCACACACACACCGATTATATAT [CACACA_site4942]	6.78
TCTAATTATCACATTGCACACACATTTCCTTTTACA [CACACA_site9140]	9.66
TTATACTGTATAGTCGCACACAAAAATATAAAATAT [CACACA_site3869]	6.75
TAATTAATTTATGTAACACACATTGTTGATTCAATA [CACACA_site1098]	6.53
AAAAGTCTCTTTTTAGTGCACATTTTATTTAAATAT	9.6
CAGATAAGGTGAAGCTGTACAAAAATGTTTTATAAC [XGTACX_site6783]	6.53
AAAGATTTAGAAAATGAACACACGAGCACCCACCGA [CACACA_site1017]	7.27
GAAAGAGAGATATATACACACATATTTATATTTTTA [CACACA_site7057]	6.53
ATTTTAATAAACACTTACATGTTTTCCAAATTGTAT [CACACA_negctrl_site1807]	6.31
TTCGTTAAAAATAAATGTACATAAATAAACCTTATT [XGTACX_site621]	6.25

Sequence	gcPBM binding intensity (ln)
ATATTAAGAATGTATACATGCATATATATATAGTAC [TGCATGCA_site219]	7.01
TATTAATAAATATGTTTACACACGAAAATACATTTT [CACACA_site1012]	6.35
ATTTTCATATTTTTATGTACATATTATAAGAATATA [XGTACX_site3691]	6.42
TATCTTTTTTTTAATACACACAAATTTATGAAAGTA [CACACA_site7879]	6.75
ATGGAATATTTCATGATTTTTTTAATTTTTTTATTG [XGTACX_negctrl_site55]	5.66
TGTCTTTATATATATTTATTTTTTAGTATTACATAA [CACACA_negctrl_site21]	6.71
GTGGTTATATATTAAGTGCATATTATAATTTTAAAC	9.28
AATATCTAAAATGTGTGTACATAATATTTTTAATAT [XGTACX_site3831]	6.22
ATAGATAAAAAATTATTTATTTAGAATTTTTATGTA [CACACA_negctrl_site400]	6.04
TGTATAAATAAATGCGTACACACTAATAAAAAAAAA [CACACA_site858]	6.65
AAAAAAAATATGATGAGTACACAATAATACATGCAA [XGTACX_site6999]	7.1
TTATGTAAATAATTTTGTACTTAAATTATTATATAA [XGTACX_site1491]	6.1
CAACTTTTTGAAAATTGTACATGACATATATATATA [XGTACX_site260]	8.94
AAGAAAATATAAATATGTACTTAATAATTTATTTAT [XGTACX_site8100]	5.91
AAAAAAGAGGGATACACACAAACATATATATATATA [CACACA_site2243]	9.28
ACAAAACATATATTCTGTACATATATAATGGTGACT [XGTACX_site6796]	6.33
TTTATATCTTATTATAGGAAAATGAATATTTTCTCT [TGCATGCA_negctrl_site478]	6.22
TATATTAATTAACAGTGTACAAAAAAAAATAAAAAA [XGTACX_site3702]	6.84
TTTATTTTAAAATTTACACACAAAAGGATTTATAGA [CACACA_site2338]	6.28
AAAATAAAAAGAAATTGTACGTATAATAATATATTT [XGTACX_site7593]	6.68
AGGATACACGGACACACACACATATATATATATATA [CACACA_site4654]	9.44
TATTAAAATAACATACGTACATAAGTATATAAAAAA [XGTACX_site1769]	6.42
TTTATTCCAGTATTCACACACGAATAACCACATAAC [CACACA_site5104]	6.51

Sequence	gcPBM binding intensity (ln)
TATATAAGAGGAAAAAGTACAGAAAAACAAAGAGAA [XGTACX_site2926]	6.72
TGTATTTATAGCAATACACACATAACAATAAATATA [CACACA_site3328]	6.6
ATAATTCTTTATTATAGTACACAAACTTTCAAAACA [XGTACX_site3597]	6.33
CTATACATATTATATAGTACTTTATTATTATGACTA [XGTACX_site1382]	6.57
CACTTTTCATATATGACACACAAAAAATTAATAAAA [CACACA_site3639]	6.61
AGCACACCCACAAAAACACACACAAAGGTGTTCTTA [CACACA_site8355]	6.46
TCATTATTATTCCTCACACATATATATATATATATT [CACACA_site4375]	7.16
GCATGTATAATGGTAGTGCATATAATAATATAATAA [GTGCAC_site9548]	9.4
TAATAATAAAAATAAACACACATATAGATGTATATA [CACACA_site7360]	6.12
ATTTTGTTCGAAAGGTGTACATATACAAAAATTATG [XGTACX_site957]	6.83
ATTGCTTTTCTTTTTGCACACTTATGCATATATATA [CACACA_site2584]	10.4
TAAAATAATACAAAATGTACAAAATTTACAAAATGT [XGTACX_site3541]	6.05
AATATAGAACAATGTTGTACATATAATAATCTTATA [XGTACX_site4671]	6.14
ATGTAAATTAAACATGGTACACATTATACAAAATTA [XGTACX_site5675]	6.56
AATATTAAAAACAAAACACACAAAAAAAAATAAACT [CACACA_site6470]	6.97
ATTAACACTGAAAAATGTACATATATAAATATAAGC [XGTACX_site8222]	6.19
AACGATATCTGTACTACACACATTATGTCATCCTAT [CACACA_site5374]	6.81
ATATAAGTATTTTGAATGCACTTTCTTTTTTTTTTT	7.52
TTATAAAATAATTAATGTACGTTTATGTGTATCGAA [XGTACX_site6117]	6.63
ACTGAAAAAAGAAATACACACATTCTGGATCATATA [CACACA_site3860]	6.47
ATATATATGAAAATATGTACATATATATATATATAA [XGTACX_site7550]	6.8
TTTATGGGTATGTTTACACACATAAAAAAATATATG [CACACA_site5646]	6.26
AAAGTTATAATACGTACACACCTTATCTTTTTGGCT [CACACA_site6267]	6.41

Sequence	gcPBM binding intensity (ln)
ATATCGTATATGAGTGGTACTAATATGTAAAAAAAA [XGTACX_site7830]	6.47
TATTATCTCTTATGAACACACATTTTTATTTTCAAA [CACACA_site3353]	6.54
ATAATAATAAAGTGAACACACACATATAATATATAT [CACACA_site9378]	6.58
ATTATACACGCGCGCACACACAACAAAAAAAAAAAA [CACACA_site7630]	7.23
TAAATAAACAAATTAACACACAGAATTTTTTTTTTC [CACACA_site1674]	6.18
TGGTAACAGCATAGAAAATGGACAAACGAAATATAA [GTGCAC_negctrl_site537]	6.96
AATGTTAAGGAGGGGAGTACATAAAATTCTCTCTCC [XGTACX_site1990]	6.36
AAAAGCTATAAAAATCGGTAATTTATAACAGGAATT [CACACA_negctrl_site469]	6.44
ATTATGTACTATTATACACACGTTTAATTGTAAATT [CACACA_site4278]	6.77
TGATTCTAACTTATGGTGCAACATTATGGACACCGT	10.5
TTAATATTGTTATAGCGTACAAATAAACATATTAAA [XGTACX_site8153]	6.33
TTACATATTTATGATTGTACACATTTATAAACAATA [XGTACX_site2190]	6.27
TATTTAAAAATAAAATGTACATATTATTATGCATTA [XGTACX_site1303]	6.28
TACATACATAAACACACACACACATATATATATATA [CACACA_site8953]	9.31
ATTTTATAAACAAATGAACACACAAACATATATATA [CACACA_site9036]	7.06
CATTAATGACATGATTGTACATAAGCTTTTTTACAT [XGTACX_site1888]	6.62
ACCCATTCAAATTTCGCACACACATACAAAAAAAAA [CACACA_site3094]	7.39
ATCAAAAGAAAACACACACACATACATATATATATA [CACACA_site3795]	8.82
ATTTGTGTATATTAGAGTACATAAAATTAGAGGAAC [XGTACX_site1654]	6.99
TTCATATAATTATATACATGCATAAATTCTAAGTAA [TGCATGCA_site622]	6.78
TTCATATATTATTATGCATGTTCATAAATTATCTAA [TGCATGCA_site896]	6.53
